Laboratory results taken from PubChem BioAssay AID2147 (National Center for Advancing Translational Sciences (NCATS), 2009).
Out of some 230,000 compounds screened, about 3,600 (1.6%) were called active. Inconclusive results, whose numbers are uncertain, are shown with a selection of clear calls. Calls follow the shape of the dose curve; as a rule, active = well fitted inhibition curve with a large enough effect (not every such curve was filed as active); inconclusive = small, poorly fitted or top-dose-only effect, or another doubt; inactive = no such curve, though single readings can be large or run the other way. Potencies beside an inconclusive call are fits to weak or partial responses and may not hold up.

Molecular target: Lysine-specific demethylase 4E (Homo sapiens) (UniProt B2RXH2)
Sequence of UniProt B2RXH2 (B2RXH2 whole entry, looked up, the tested form may be a part): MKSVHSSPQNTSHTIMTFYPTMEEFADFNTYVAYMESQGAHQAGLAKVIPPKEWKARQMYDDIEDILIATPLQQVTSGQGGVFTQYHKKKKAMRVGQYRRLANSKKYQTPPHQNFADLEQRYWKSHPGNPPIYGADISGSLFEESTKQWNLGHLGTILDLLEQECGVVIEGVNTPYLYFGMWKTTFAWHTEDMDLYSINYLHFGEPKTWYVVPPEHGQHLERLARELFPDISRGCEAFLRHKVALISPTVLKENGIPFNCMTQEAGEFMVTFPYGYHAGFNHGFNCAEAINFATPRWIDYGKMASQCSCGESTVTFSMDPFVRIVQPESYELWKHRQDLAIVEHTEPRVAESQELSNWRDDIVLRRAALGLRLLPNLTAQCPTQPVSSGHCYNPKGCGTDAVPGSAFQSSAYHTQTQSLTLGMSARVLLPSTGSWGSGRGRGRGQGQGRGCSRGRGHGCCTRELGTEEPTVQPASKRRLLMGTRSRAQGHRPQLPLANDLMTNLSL
Assay: qHTS Assay for Inhibitors of Human Jumonji Domain Containing 2E (JMJD2E)
Conditions: JMJD2E catalytic domain, FDH-coupled NADH fluorescence (FDH is formaldehyde dehydrogenase); series mostly up to 57.1 µM; activity change, negative = inhibition: at the top concentration
Also: nearly all actives have a fitted effect of over 50% in size.
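For activity change, negative = inhibition in this document: 0% = wells with enzyme and -100% = buffer wells without enzyme.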
Potency is read from the fitted curve at half-maximal effect; tags tell the direction and shape of the fitted curve.

Compound	Potency	activity change, negative = inhibition
COc1ccc(/C=N\NC(=O)c2c(C)nc3ccc(Br)cn23)cc1	inconclusive: 35.5 µM [inhibitor, single point]	–
Cc1cc(C)c(NC(=O)COC(=O)CCc2ccc(S(=O)(=O)N3CCCCC3)cc2)c(C)c1	–	inactive: 4.25%
O=C(Nc1ccc(CSc2ccccc2)cc1)c1ccccc1	inconclusive: 39.8 µM [inhibitor, single point]	–
COc1cc(C(=O)c2nccc3cc(OC)c(OC)cc23)c([N+](=O)[O-])cc1OC	–	inactive: -19.7%
CCC1C/C(=C\c2cccnc2)C(=O)/C(=C/c2cccnc2)C1 (stereo not drawn)	–	inactive: -0.306%
CCOc1ccccc1N1CCN(c2nc(N)c(C#N)c(CC#N)c2C#N)CC1	inconclusive: 22.4 µM [inhibitor, partial curve]	–
CCOC(=O)C1=C(C)NC(=O)NC1c1ccc(OC(=O)c2ccco2)cc1 (stereo not drawn)	–	inactive: 5.62%
NC(=O)c1c(NC(=O)CSc2nnc(-c3ccco3)n2-c2ccccc2)sc2c1CCC2	inconclusive: 25.1 µM [inhibitor, partial curve]	–
COc1ccc(C(=O)OCC(=O)Nc2cc(S(=O)(=O)N3CCOCC3)ccc2N2CCCC2)cc1	–	inactive: -2.2%
O=C(CSc1nnc(-c2ccncc2)n1Cc1ccco1)c1ccc(Cl)cc1	inconclusive: 39.8 µM [inhibitor, single point]	–
COc1ccc(Cn2c(=S)[nH]c3ccccc32)cc1	inconclusive: 2.82 µM [inhibitor, partial curve]	–
Cc1ccc2c(c1)c1c(n2CC(O)CNC(C)(C)C)CCCC1 (stereo not drawn)	–	inactive: -2.42%
Cn1cnnc1SCC(=O)c1ccc(O)c(O)c1	active: 10 µM	–
COc1cc(/C=C2/C(=O)CNC2=O)ccc1O	–	inactive: -13.3%
CCN(CC)CCNC(=O)c1cn(CC)c2cc(N3CCN(C(=O)c4ccco4)CC3)c(F)cc2c1=O	inconclusive: 25.1 µM [inhibitor, partial curve]	–
CC1CN(c2cc(-c3ccccc3)c3ccccc3n2)CC(C)O1 (stereo not drawn)	inconclusive: 31.6 µM [inhibitor, partial curve]	–
CCN1CCN(Cc2c(C)[nH]c3ccc(C(=O)OC)cc3c2=O)CC1	inconclusive: 25.1 µM [inhibitor, partial curve]	–
O=C(Nc1nnc(Cc2ccc(Cl)cc2)s1)C1CCCO1 (stereo not drawn)	–	inactive: -7.46%
COc1ccc(Cl)cc1C(=O)Nc1nc2ccc(S(C)(=O)=O)cc2s1	inconclusive: 3.55 µM [inhibitor, full curve]	–
Cc1cnc(NC(=O)c2cc3ccccc3o2)s1	inconclusive: 28.2 µM [inhibitor, single point]	–
COc1ccccc1N(CC(=O)Nc1ccc2c(c1)OCO2)S(=O)(=O)c1ccccc1	–	inactive: -8.14%
CCCCn1c(N)c(S(=O)(=O)c2ccc(C)cc2)c2nc3ccccc3nc21	inconclusive: 35.5 µM [inhibitor, partial curve]	–
CCOc1cc(NC(=S)Nc2ccccc2)c(OCC)cc1NC(=O)c1ccccc1	inconclusive: 39.8 µM [inhibitor, single point]	–
Cc1nnc(N/N=C/c2ccc(-c3ccc(Br)cc3)o2)n1N	active: 5.62 µM	–

Compound	Potency	activity change, negative = inhibition
COc1ccc(C(=O)Nc2ccc3oc(-c4cccc(F)c4)nc3c2)cc1OC	inconclusive: 14.1 µM [inhibitor, partial curve]	–
CCOC(=O)N1CCN(CC(=O)n2c(C)c(C)c3ccccc32)CC1	inconclusive: 39.8 µM [inhibitor, single point]	–
Cc1c(C)n(Cc2ccccc2)c2ccc(C(=O)OCCCN(C)C)cc12	–	inactive: 0.134%
O=c1oc2ccc3ccccc3c2cc1-c1nnc(-c2cccs2)o1	inconclusive: 11.2 µM [inhibitor, partial curve]	–
COc1ccc(S(=O)(=O)Nc2ccccn2)cc1C	inconclusive: 25.1 µM [inhibitor, partial curve]	–
CSc1nc(-c2ccco2)cc(C(F)(F)F)c1C#N	inconclusive: 28.2 µM [inhibitor, partial curve]	–
Cn1c2ccccc2c2nnc(NN)nc21	inconclusive: 12.6 µM [inhibitor, partial curve]	–
O=c1[nH]c2ccccc2nc1/C=C(\O)c1cccs1	inconclusive: 2.82 µM [inhibitor, full curve]	–
CCOc1ccccc1CN1CCN(Cc2ccon2)CC1CCO (stereo not drawn)	–	inactive: 8.52%
O=C(NCc1ccco1)C12CC3CC(C1)CC(C(=O)NCc1ccco1)(C3)C2	–	inactive: -2.53%
Fc1ccc(N/N=C2/CC(c3ccccc3)Oc3ccccc32)c(F)c1 (stereo not drawn)	–	inactive: 6.39%
COc1cc(/C=N/NS(=O)(=O)c2ccc(C(C)(C)C)cc2)cc([N+](=O)[O-])c1O	–	inactive: -1.99%
c1ccc2oc(-c3ccc(Nc4nc(N5CCCCC5)nc(N5CCOCC5)n4)cc3)nc2c1	inconclusive: 3.98 µM [inhibitor, partial curve]	–
O=C(C[n+]1cccc(NC(=O)c2ccccc2)c1)c1cccc([N+](=O)[O-])c1	–	inactive: 4.99%
O=C(CSc1ncccc1-c1nc2ccccc2[nH]1)N1CCN(c2ccccc2F)CC1	inconclusive: 35.5 µM [inhibitor, partial curve]	–
COc1ccc(C2C(C#N)=C(N)OC(C(C)(C)C)=C2C#N)cc1OC (stereo not drawn)	inconclusive: 28.2 µM [inhibitor, single point]	–
CCOC(=O)CN1NC2(CCCC(C)C2)NC1=S (stereo not drawn)	inconclusive: 39.8 µM [inhibitor, single point]	–
COc1ccc(-c2nnc(N(C)C(=O)c3ccno3)s2)cc1	inconclusive: 35.5 µM [inhibitor, single point]	–
Cc1nnc(N/N=C/c2ccc(O)c([N+](=O)[O-])c2)[nH]c1=O	inconclusive: 35.5 µM [inhibitor, single point]	–
Cc1cc(C)cc(Nc2nc(-c3ccc(S(=O)(=O)N4CCCC4)cc3)cs2)c1	inconclusive: 10 µM [inhibitor, partial curve]	–
CSC1=NCCN1C(=O)c1ccc2c(c1)OCO2	–	inactive: 6.25%
CCOC(=O)c1cc(NC(=O)Nc2ccccc2OC)c(C)nc1C	–	inactive: -0.826%
Cc1cccn2c(=O)c(C=O)c(Sc3ncccn3)nc12	–	inactive: -10.1%
O=c1oc2cc(Br)ccc2n1CSC1=NCCS1	–	inactive: 1.99%
